# Results published in paper PMC3253811.
# The chains behind the UniProt entries cited, without tags or fusion partners. Where a name states a change or a piece, a line headed by the entry shows the natural chain unless it says otherwise. Residues count along the entry.
# UniProt Q96EP0: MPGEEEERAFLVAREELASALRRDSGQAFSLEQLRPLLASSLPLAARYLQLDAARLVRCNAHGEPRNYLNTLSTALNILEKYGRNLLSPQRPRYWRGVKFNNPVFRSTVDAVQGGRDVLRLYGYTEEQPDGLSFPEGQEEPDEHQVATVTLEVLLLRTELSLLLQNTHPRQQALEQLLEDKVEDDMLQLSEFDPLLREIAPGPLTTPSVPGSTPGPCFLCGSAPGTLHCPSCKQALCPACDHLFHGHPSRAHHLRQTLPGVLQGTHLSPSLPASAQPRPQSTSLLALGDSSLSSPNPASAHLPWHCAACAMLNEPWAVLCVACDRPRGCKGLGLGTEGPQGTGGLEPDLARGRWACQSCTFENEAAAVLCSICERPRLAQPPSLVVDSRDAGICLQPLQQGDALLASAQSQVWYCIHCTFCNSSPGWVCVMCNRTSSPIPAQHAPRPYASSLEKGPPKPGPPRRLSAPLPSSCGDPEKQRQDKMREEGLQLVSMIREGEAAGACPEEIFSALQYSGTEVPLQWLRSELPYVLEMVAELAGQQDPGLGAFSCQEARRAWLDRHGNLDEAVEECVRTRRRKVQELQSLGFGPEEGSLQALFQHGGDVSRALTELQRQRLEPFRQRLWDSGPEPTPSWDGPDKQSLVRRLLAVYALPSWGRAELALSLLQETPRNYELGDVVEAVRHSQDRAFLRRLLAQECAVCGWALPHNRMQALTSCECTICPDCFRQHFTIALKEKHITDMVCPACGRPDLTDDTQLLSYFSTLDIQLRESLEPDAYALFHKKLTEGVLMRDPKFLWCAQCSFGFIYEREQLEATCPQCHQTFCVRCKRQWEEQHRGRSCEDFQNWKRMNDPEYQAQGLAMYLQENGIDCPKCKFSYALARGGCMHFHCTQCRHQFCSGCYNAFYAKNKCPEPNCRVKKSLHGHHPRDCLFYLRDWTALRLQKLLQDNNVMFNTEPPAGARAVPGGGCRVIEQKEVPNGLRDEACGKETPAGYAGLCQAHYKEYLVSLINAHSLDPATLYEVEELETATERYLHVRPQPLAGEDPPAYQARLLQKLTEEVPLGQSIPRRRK
# GFP fusion protein of the UBA domain of Hoip (residues 537-686): residues 537-686 of Q96EP0
# No constants are given. Whether binding was seen depends on the method and setting. In cells and extracts the contact can be indirect. Some binding calls cover weakened binding; strength is not graded here. Sequences can lack the tags named with a protein.
# T1: GFP-Sharpin (full length, amino acids 1-382) (rat) (UniProt Q9EQL9)
# T1 sequence: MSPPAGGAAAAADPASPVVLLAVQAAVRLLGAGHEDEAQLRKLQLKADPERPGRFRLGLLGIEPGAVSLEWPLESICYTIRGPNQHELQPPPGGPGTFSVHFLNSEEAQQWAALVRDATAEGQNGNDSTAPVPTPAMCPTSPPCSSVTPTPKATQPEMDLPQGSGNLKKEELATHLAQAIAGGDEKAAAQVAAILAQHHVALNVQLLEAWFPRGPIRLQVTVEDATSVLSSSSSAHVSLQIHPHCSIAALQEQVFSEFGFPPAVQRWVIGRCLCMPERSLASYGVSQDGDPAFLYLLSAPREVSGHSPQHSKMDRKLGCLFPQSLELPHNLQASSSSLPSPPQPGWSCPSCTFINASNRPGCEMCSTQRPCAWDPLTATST
# T2: GFP fusion of the isolated Ubl domain of Sharpin (residues 171-310) (rat) (UniProt Q9EQL9)
# T2 sequence: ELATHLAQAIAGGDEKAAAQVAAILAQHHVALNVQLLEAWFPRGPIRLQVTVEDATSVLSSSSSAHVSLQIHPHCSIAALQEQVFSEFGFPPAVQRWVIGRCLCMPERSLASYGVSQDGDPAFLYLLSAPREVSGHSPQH
# T3: GFP as a fusion with full length Sharpin (amino acids 1-382), in Huh-7 cells (rat) (UniProt Q9EQL9)
# T3 sequence: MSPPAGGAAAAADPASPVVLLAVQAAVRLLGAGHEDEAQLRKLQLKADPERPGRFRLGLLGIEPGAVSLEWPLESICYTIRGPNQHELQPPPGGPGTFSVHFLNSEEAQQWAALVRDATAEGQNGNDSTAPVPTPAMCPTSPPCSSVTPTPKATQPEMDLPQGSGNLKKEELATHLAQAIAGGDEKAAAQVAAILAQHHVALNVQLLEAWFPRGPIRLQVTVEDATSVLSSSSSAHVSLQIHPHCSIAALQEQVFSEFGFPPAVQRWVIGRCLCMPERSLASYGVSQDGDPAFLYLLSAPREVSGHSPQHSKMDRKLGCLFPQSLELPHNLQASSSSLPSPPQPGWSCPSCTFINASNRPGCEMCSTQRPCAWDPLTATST
# How the values were obtained:
# [1] = target: T1, GFP-Sharpin (full length, amino acids 1-382) (rat); assay: co-IP; coexpression in HEK293 cells, RIPA lysate, GFP fusion precipitated with GFP-Trap matrix, Western blot (anti-GFP, anti-Flag)
# [2] = target: T2, GFP fusion of the isolated Ubl domain of Sharpin (residues 171-310) (rat); assay: as above
# [3] = target: T3, GFP as a fusion with full length Sharpin (amino acids 1-382), in Huh-7 cells (rat); assay: co-IP; GFP-Sharpin expressed in Huh-7 cells, lysate, GFP-Trap matrix, Western blot with antibodies against human Hoip (endogenous)
# [4] = target: GFP fusion protein of the UBA domain of Hoip (residues 537-686) (UniProt Q96EP0); assay: co-IP; coexpression in HEK293 cells, RIPA lysate, GFP fusion precipitated with GFP-Trap matrix, Western blot (anti-GFP, anti-Flag)
binding [1],Molecule,also measured
no binding,"Flag-tagged Hoip fragment, residues 1-396 (from UniProt Q96EP0 1-396) (domain or fragment)",
binds,Flag-tagged Hoip (from UniProt Q96EP0 1-1072) (enzyme),binding [2]: binds
binds weakly,"Flag-tagged Hoip fragment, residues 1-602 (from UniProt Q96EP0 1-602) (domain or fragment)",
binds,"Flag-tagged Hoip fragment, residues 1-686 (from UniProt Q96EP0 1-686) (domain or fragment)",
,endogenous Hoip of Huh-7 hepatocarcinoma cells (from UniProt Q96EP0 1-1072) (enzyme),binding [3]: binds
,"Myc-tagged Sharpin (protein, UniProt Q9EQL9 1-381) MSPPAGGAAAAADPASPVVLLAVQAAVRLLGAGHEDEAQLRKLQLKADPERPGRFRLGLLGIEPGAVSLEWPLESICYTIRGPNQHELQPPPGGPGTFSVHFLNSEEAQQWAALVRDATAEGQNGNDSTAPVPTPAMCPTSPPCSSVTPTPKATQPEMDLPQGSGNLKKEELATHLAQAIAGGDEKAAAQVAAILAQHHVALNVQLLEAWFPRGPIRLQVTVEDATSVLSSSSSAHVSLQIHPHCSIAALQEQVFSEFGFPPAVQRWVIGRCLCMPERSLASYGVSQDGDPAFLYLLSAPREVSGHSPQHSKMDRKLGCLFPQSLELPHNLQASSSSLPSPPQPGWSCPSCTFINASNRPGCEMCSTQRPCAWDPLTATST",binding [4]: binds
